The full ranking holds about 33,000 sequences; the median of “E-score (-0.5 to 0.5)” is about -0.053, and the highest 2% start at about 0.37. The list shows a part of the results.
target: Hap1 (UniProt P0CE41); assay: PBM E-score (8-mer binding enrichment) (E-score (-0.5 to 0.5)); higher = stronger / more preferred TF binding; most listed sequences are background and not binding sites; details: protein concentration: 200 nM; construct: GST-DNA-binding domain
Method in brief: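 GST-tagged yeast TFs (full-length or DNA-binding domain) were made by PURExpress in vitro transcription/translation and applied at about 100-200 nM to universal all-10-mer Agilent arrays. The arrays were made double-stranded by primer extension, on fresh or once-stripped slides. Bound protein was detected with fluorescent anti-GST, and scans were normalised with masliner. Each ungapped eight-base word, pooled with its reverse complement, received an E-score (modified Wilcoxon-Mann-Whitney statistic) from the Universal PBM Analysis Suite.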

UniProt P0CE41, sequence (P0CE41 whole entry, the tested form may be a part): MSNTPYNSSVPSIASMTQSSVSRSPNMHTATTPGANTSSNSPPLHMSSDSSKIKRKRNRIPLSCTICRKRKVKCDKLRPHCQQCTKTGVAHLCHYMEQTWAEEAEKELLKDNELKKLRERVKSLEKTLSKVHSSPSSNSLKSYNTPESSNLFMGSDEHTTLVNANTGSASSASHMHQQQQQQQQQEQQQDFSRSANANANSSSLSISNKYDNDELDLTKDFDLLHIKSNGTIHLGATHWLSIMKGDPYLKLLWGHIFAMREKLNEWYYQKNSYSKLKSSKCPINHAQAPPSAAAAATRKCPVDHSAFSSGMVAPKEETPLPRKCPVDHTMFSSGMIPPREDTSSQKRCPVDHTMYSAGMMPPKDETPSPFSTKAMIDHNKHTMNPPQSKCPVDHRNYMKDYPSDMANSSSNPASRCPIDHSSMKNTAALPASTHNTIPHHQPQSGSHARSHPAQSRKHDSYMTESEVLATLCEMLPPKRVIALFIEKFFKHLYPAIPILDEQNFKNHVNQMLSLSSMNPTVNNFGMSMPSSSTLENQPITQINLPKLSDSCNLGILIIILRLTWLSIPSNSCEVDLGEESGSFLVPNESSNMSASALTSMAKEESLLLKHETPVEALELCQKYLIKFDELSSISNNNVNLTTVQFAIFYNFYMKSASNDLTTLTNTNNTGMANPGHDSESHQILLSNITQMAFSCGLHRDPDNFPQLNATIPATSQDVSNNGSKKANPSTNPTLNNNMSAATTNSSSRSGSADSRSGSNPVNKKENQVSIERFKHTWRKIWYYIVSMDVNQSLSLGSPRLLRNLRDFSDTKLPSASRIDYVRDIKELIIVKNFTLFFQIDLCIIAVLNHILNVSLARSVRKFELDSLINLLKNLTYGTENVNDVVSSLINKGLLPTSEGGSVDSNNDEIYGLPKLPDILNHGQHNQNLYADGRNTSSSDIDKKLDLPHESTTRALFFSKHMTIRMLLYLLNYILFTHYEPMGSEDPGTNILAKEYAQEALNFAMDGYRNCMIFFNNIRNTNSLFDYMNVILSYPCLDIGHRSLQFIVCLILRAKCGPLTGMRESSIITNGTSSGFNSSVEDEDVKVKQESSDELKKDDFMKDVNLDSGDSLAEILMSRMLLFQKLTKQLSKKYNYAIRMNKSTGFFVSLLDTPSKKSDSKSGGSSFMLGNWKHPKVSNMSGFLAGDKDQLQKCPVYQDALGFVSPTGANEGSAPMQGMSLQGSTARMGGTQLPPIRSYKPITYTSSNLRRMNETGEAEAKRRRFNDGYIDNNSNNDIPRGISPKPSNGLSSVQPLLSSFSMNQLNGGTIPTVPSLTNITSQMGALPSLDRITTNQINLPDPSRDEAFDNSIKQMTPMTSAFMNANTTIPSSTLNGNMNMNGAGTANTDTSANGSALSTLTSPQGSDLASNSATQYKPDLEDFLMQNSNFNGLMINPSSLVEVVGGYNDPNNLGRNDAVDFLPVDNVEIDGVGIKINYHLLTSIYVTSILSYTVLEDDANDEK

Sequence | PBM E-score
GCAGAGCC | -0.00883
CTATTGCC | 0.145
GAGTGGGC | 0.00462
AATTCTGC | -0.0329
AAGCGGCG | 0.116
TACATCAA | -0.0848
AGATTTGG | -0.187
CCGACTCG | 0.24
CACAACCA | -0.00097
AACTGTAG | -0.314
AAGTATCC | -0.0191
CGGACACG | 0.358
AAATACAA | -0.0957
CGGGGGTC | 0.19
CACTTCGC | -0.198
GCCTGTAC | -0.0226
CGACGAGA | -0.0197
CCGGCTCG | 0.352
GGGAACCC | 0.0724
CATGAAAA | -0.261
AACAGAGA | -0.0674
ATGGGGCC | -0.141
CTATGTTC | 0.0312
AATAGTAT | 0.103
CAATGAAG | -0.149

Sequence | PBM E-score
CCATCAAC | -0.236
GCCAGCGA | -0.205
AGACCACT | -0.163
AATAAGTC | -0.196
ACACTAGC | -0.0954
AACGGTTA | 0.122
AACTTATT | 0.157
GAGCTACC | -0.0568
GCTGTGCC | -0.0329
CCAATAAG | -0.286
TGCCCGAA | 0.187
GAGAAGCC | 0.152
ACGCCTTA | -0.275
GTATCCGA | 0.304
CCACGGAA | 0.348
GAAGTCGC | 0.00691
CTTCATAA | -0.146
CCACTAGG | -0.312
AATACCGC | 0.304
GGGTCCTA | -0.0923
ACTTCCAT | 0.0711
CATTGACC | -0.0136
CGACAACA | 0.0425
ATTTTCCA | -0.0537
GGTCGCAC | 0.095

Sequence | PBM E-score
CGATTACC | 0.269
AGGCTAAG | -0.138
AGACAAAT | -0.193
CTTCGCTA | -0.00511
TCAGAGAA | -0.316
ACCGTATC | 0.073
CATATAAG | -0.0747
AGAGGATG | -0.069
AACACAGG | -0.207
CTAATGCC | 0.215
GGTATCGA | 0.00812
ACCTCACG | -0.144
CGTGAACC | 0.0247
AGTTCGAA | -0.0481
CTTCGGTA | 0.158
GCCTCTTA | -0.0682
GTAACAAA | 0.00584
CACTGACC | 0.133
CTCTCAAC | -0.118
ATTCAGTG | -0.00274
AGACTATC | -0.15
TAGGGAGA | -0.115
AGGCGTGC | -0.0618
ACAGTAGG | -0.195
AGCGCACG | 0.0726

Sequence | PBM E-score
GAACACAA | -0.25
ATCGCGCA | -0.101
GTCATCAC | -0.249
AATATTAG | -0.0457
GCCTCTCC | -0.282
ATGCTGAA | -0.183
AAGCCATC | 0.0118
ATTAGTTA | 0.115
CAGCCGAC | 0.183
TCCTTAGA | -0.257
CACGTCCA | -0.234
AGACCTGA | -0.0959
TGATATAA | -0.0236
ATCCCCTG | -0.324
ACTGCTTG | -0.109
ACTACAGA | -0.0671
CGTCAGTA | -0.104
AAAACGAG | -0.23
GAGGGAGC | -0.175
CCGGCGAG | 0.309
AGGTTTAA | -0.103
TAGAGCGA | -0.198
TACGAAAA | -0.198
ACTAAAAC | 0.0373
AGCTGTCC | -0.118

Sequence | PBM E-score
TACGCCTA | -0.258
AGAGTTTG | -0.113
GGGTGTCA | 0.0288
CCCCGACC | 0.238
CGGCAACA | 0.196
AATAATGC | 0.142
CGTCACCA | -0.282
AAACCTGC | -0.148
GTTCGCCA | 0.0159
GCCCGCAA | 0.199
AAAGGACT | -0.0254
AAACTAAG | -0.174
ACAGATAT | -0.0542
ACGTTTCG | -0.0258
CATCAAAA | -0.0602
GAATAGGA | -0.00614
ATCATCAT | -0.177
CGGAGCAA | 0.394
CGGATCTA | 0.404
CTCTTACA | -0.349
ACACGCCA | -0.0689
ACTCCCGC | 0.151
ATGTAAAC | 0.123
CTGGGAAG | -0.191
AAAGGGCC | 0.0246

Sequence | PBM E-score
CTGAGAAC | -0.202
TCATTTCA | -0.079
CAAATGTC | -0.0154
ATTGGCGC | -0.035
GGGGTATA | 0.103
CGGCATTC | 0.284
GGACAAAA | 0.342
ATGCACCC | 0.0505
ACATGGAC | -0.143
AGCCCACA | -0.284
CACTCGAC | -0.079
GCTTGCAA | -0.0866
TAATCTCA | -0.0629
ACGGGCTA | 0.0774
CTTCTGAA | -0.0945
ACATGGCG | -0.13
ATAGGTAG | -0.053
AAGTTAAA | -0.168
CCGCGACG | 0.155
AAAAAGAG | -0.187
ACTTAAGC | 0.0112
CGGGACGA | 0.0655
CCAGGGCC | -0.191
GGAATGGA | -0.0214
AGACCGAG | 0.373

Sequence | PBM E-score
GCGAATAA | 0.128
AAGTCCAG | -0.056
ACGATAAG | 0.245
AATTCTAC | -0.113
CATAAGAC | 0.0262
ATGGGTAG | -0.264
TGACCGAA | 0.287
ACTGTAAA | -0.0288
AAACCAAA | -0.0263
GCCGACAC | 0.184
GAGGATTA | -0.0987
CTTCGATA | -0.0393
GAACTTGC | -0.0238
ACCCGGAG | 0.423
GCAGCACA | -0.0485
GGCAGTAA | 0.107
AGTGTGCC | -0.0069
CGGGGGTA | 0.425
CCCGAAAA | 0.426
AATGCTGT | -0.168
AGGCTAAT | 0.0538
CACGCTTA | -0.11

— the supplement of paper PMC3334620
